Laboratory results reported in PubChem BioAssay AID1963576 (National Center for Advancing Translational Sciences (NCATS), 2024).
Hit rate of the full screen: of about 46,000 compounds, about 60 (0.1%) were called active. About 3% were inconclusive and are not listed. Calls follow the shape of the dose curve; as a rule, active = well fitted inhibition curve with a large enough effect; inconclusive = small, poorly fitted or top-dose-only effect; inactive = no such curve, though single readings can be large or run the other way. Some of the results follow.

Experiment: Primary qHTS assay for Inhibitors of ovarian cancer metastasis using an organotypic tumor microenvironment (TME) model. Also: nearly all actives have a fitted effect of over 65% in size.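 As to activity change, negative = inhibition: plate controls were DMSO wells for no effect and tomatine positive control wells for full effect.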
Settings: SKOV3ip1-GFP adhesion/invasion on 3D omental model, fluorescence; series mostly up to 45.8 µM; activity change, negative = inhibition: at the top concentration
In short: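 Primary human omental fibroblast/mesothelial 3D culture pre-formed 48 h. SKOV3ip1-GFP cells added with compounds (0.36-46 umol/L), incubated 2 h RT/16 h 37 C, fixed; GFP cells quantified at 488/509 nm.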

SMILES	activity change, negative = inhibition	outcome
COc1cc(NC(=O)CSc2c3c(nc4ccccc24)CCC3)cc(OC)c1OC	inactive: -9.94%	–
NC(=O)c1cc(S(=O)(=O)N2CCN(c3cccc(C(F)(F)F)c3)CC2)cs1	inactive: -2.48%	–
Cc1ccc(-c2nn3c(C)nnc3c3ccccc23)cc1S(=O)(=O)NCC(C)O (stereo unspecified)	inactive: 1.39%	–
O=C(c1ccc2c(c1)N(Cc1ccc(F)cc1)C(=O)c1ccccc1S2(=O)=O)N1CCCCC1	–	inactive
CCc1ccccc1N(C)C(=O)C1CCCN(c2ncnc3c2nc2n3CCCCC2)C1 (stereo unspecified)	inactive: -5.87%	–
COc1cc(NC(=O)c2cc3cc4ccc(C)cc4nc3o2)cc(OC)c1OC	inactive: -1.19%	–
Cc1ccc(-n2ncc(C(=O)NCc3ccco3)c2C2CCN(C(=O)OC(C)(C)C)CC2)cc1C	inactive: -0.409%	–
O=C(CSc1nc(-c2cccc(F)c2)[nH]c1-c1ccccc1)Nc1ccc2c(c1)OCO2	inactive: 6.16%	–
O=C(CSc1nc2ccccc2nc1Cc1ccc(Cl)cc1)N1CCN(c2ccccc2)CC1	inactive: -3.91%	–
CCc1c(C)c2cc3c(c(C)c2oc1=O)OCN(CCc1ccccc1F)C3	–	inactive
Cc1c(C(=O)Nc2cc(F)ccc2F)sc2nc(-c3ccc(F)cc3)cn12	inactive: -1.79%	–
COc1ccc2c3c1OC1C[C@@H](O)C=C[C@@]31CCN(C)C2 (stereo partly specified)	inactive: 7.09%	–
N#Cc1c(-c2ccccc2)cc(-c2ccccc2)nc1SCC(O)CS(=O)(=O)Cc1ccc(Cl)cc1 (stereo unspecified)	inactive: -7.13%	–
Cc1ccccc1-c1noc(-c2ccccc2OCC(=O)Nc2cccc([N+](=O)[O-])c2)n1	inactive: -2.55%	–
O=C1CN(C(=O)c2ccc(S(=O)(=O)N3CCCC3)cc2)C(c2ccccc2)c2cc(F)ccc2N1 (stereo unspecified)	inactive: 2.3%	–
Cc1cccc(C)c1NC(=O)Cn1nnc(S(=O)(=O)c2ccccc2)c1N	–	inactive
CN(C)c1ccc(Nc2ncnc3c2c(-c2ccccc2)cn3-c2cccc(Cl)c2)cc1	inactive: -8.64%	–
Cc1c(C(=O)NCCN(C)C)oc2c1-c1nn(Cc3cccc(Cl)c3)cc1CC2	–	inactive
CCOC(=O)c1cc2c(=O)n3ccccc3nc2n(C(C)C)c1=NC(=O)C(C)(C)Oc1ccc(Cl)cc1	inactive: -7.84%	–
Cc1cc(NC(=O)Cc2ccccc2)cc(-c2nc3ccccc3o2)c1O	–	inactive
CCn1cc(/C=C(\NC(=O)c2cc(OC)c(OC)c(OC)c2)C(=O)NCCCn2ccnc2)c2ccccc21	inactive: 3.94%	–

SMILES	activity change, negative = inhibition	outcome
COc1ccc(-c2nc3sc(CCNC(=O)c4ccc(Br)o4)c(C)n3n2)cc1	–	inactive
CCN(Cc1nc(-c2ccc(OC)c(OC)c2)no1)S(=O)(=O)c1ccc(OC)cc1	inactive: -0.798%	–
C#Cc1cccc(Nc2ncnc3cc(OCCOC)c(OCCO)cc23)c1	inactive: 4.52%	–
COc1ccccc1N1CCN(C(=O)CN2C(=O)COc3ccc(S(=O)(=O)N4CCOCC4)cc32)CC1	inactive: -9.75%	–
CCN(CC)C(=O)c1c(-c2ccccc2)c(-c2ccccc2)nn(CC)c1=O	inactive: -16.5%	–
COc1ccc(CCC(=O)NC2CC(=O)N(c3ccc(F)cc3)C2)cc1 (stereo unspecified)	inactive: 3.26%	–
COC(=O)c1ccccc1NS(=O)(=O)c1cc2c(cc1C)N(C)CCO2	inactive: -10.8%	–
Cc1cccc(S(=O)(=O)c2cn(Cc3ccccc3)c3cc(N4CCCCC4)c(F)cc3c2=O)c1	inactive: -8.48%	–
CC[C@H](CC#N)OC(=O)N[C@@H](C)c1cccc(NC(=O)Nc2ccc(-c3cnco3)c(OC)c2)c1	inactive: -25.2%	–
CC(C)(C)OC(=O)N1CCC(c2c(C(=O)NC3CCCCC3)cnn2-c2ccc(F)cc2F)CC1	inactive: 0.95%	–
Cc1ccc(S(=O)(=O)C(CNS(=O)(=O)c2cc(F)ccc2F)c2cccs2)cc1 (stereo unspecified)	inactive: -4.8%	–
COc1cc(CNC(=O)c2cnc(SC)nc2-c2ccccc2)cc(OC)c1OC	inactive: -1.44%	–
Cn1cnc2c(F)c(Nc3ccc(Br)cc3F)c(C(=O)NOCCO)cc21	inactive: 8.15%	–
O=C(CSc1nc(=O)n(Cc2ccccn2)c2c1CCC2)Nc1ccccc1	–	inactive
COc1cccc(CNC(=O)Cn2ncn3nc(-c4cccs4)cc3c2=O)c1	inactive: -21.2%	–
COc1ccc(Cn2ccc3nc(C)c(C(=O)Nc4cccc(SC)c4)cc3c2=O)cc1	inactive: -3.02%	–
Oc1c(C(Nc2ccccn2)c2ccccc2F)ccc2cccnc12 (stereo unspecified)	inactive: 0.761%	–
Cc1ccc(NC(=O)C2CCN(S(=O)(=O)c3cccc4nsnc34)CC2)cc1F	inactive: -12.1%	–
Cc1noc(C)c1S(=O)(=O)N(CC(=O)Nc1ccc(F)cc1F)c1ccc(C(C)C)cc1	inactive: -8.7%	–
CCCNC(=O)c1ccc2c(c1)nc1n2CCCCC1	–	inactive
CCN1CCN(c2oc(-c3ccc(COc4ccccc4C)o3)nc2C#N)CC1	inactive: -27.1%	–

SMILES	activity change, negative = inhibition	outcome
O=C(O)c1ccccc1C(=O)Nc1ccc(Br)c2cccnc12	inactive: -5.58%	–
CC(=O)c1ccc(NS(=O)(=O)c2ccc3c(c2)NC(=O)CCS3)cc1	inactive: 3.35%	–
COc1ccc(NC(=O)C(=O)NCCc2csc3nc(-c4ccccc4F)nn23)cc1OC	inactive: 4.61%	–
COc1ccc(C(Nc2ccccn2)c2ccc3ccc(C)nc3c2O)cc1C (stereo unspecified)	–	inactive
COc1ccc(-c2c(C)c3ccc(O)c(CN4CCC(C)CC4)c3oc2=O)cc1OC	inactive: 2.42%	–
CC(=O)Nc1ccccc1-c1nc2ccccc2n(C(C)C(=O)Nc2ccccc2C(F)(F)F)c1=O (stereo unspecified)	inactive: -0.319%	–
CCCN(CCC)CCCNC(=O)c1cc2c(=O)n(C)c3ccccc3c2s1	inactive: -20.2%	–
COc1cccc(CNC(=O)c2ccc(-c3nc(CSc4ccccc4)c(C)o3)cc2)c1	inactive: -1.36%	–
CCn1cc2nc(SCc3ccccc3Cl)n(Cc3ccc(OC)cc3)c(=O)c2n1	–	inactive
COc1cc2c(c(OC)c1)C(c1cccc(F)c1F)CC(=O)N2 (stereo unspecified)	–	inactive
Cc1ccc(CNC(=O)c2cc(=O)c3cc(C)ccc3o2)cc1	inactive: 1.91%	–
COc1cc(OC)c(OC)cc1/C=C/c1nc2cc3ccccc3cc2c(=O)n1-c1ccccc1Br	inactive: -21.1%	–
Cc1cccc(N2CCN(C3=C(c4ccccc4)C(=O)c4ccccc43)CC2)c1C	inactive: -23.1%	–
CN1CCN(c2ncnc3c2cnn3-c2cccc(Cl)c2)CC1	inactive: 3.61%	–
NC(=O)c1cnccn1	inactive: 3.19%	–
Cc1ccc(S(=O)(=O)N2CCN(Cc3ccccc3Cl)CC2)cc1	inactive: -9.49%	–
Cc1ccc(Cn2c(C(=O)O)c(CNCc3ccc(C)o3)c3ccc(C)cc32)cc1	inactive: 70.8%	–
Cc1cccc(NC(=O)CN2C(=O)C3(SCC(=O)N3c3ccccc3)c3ccccc32)c1 (stereo unspecified)	–	inactive
CCOC(=O)c1c(NC(=O)c2cc(=O)c3cc(C)ccc3o2)sc2c1CCCC2	inactive: -24.3%	–
